Out of some 52,000 compounds screened, about 1,700 (3.3%) were called active. Cut-off read from the data, not from the text of the source: active = survival mostly below about 52% (no sharp cut-off); inactive = mostly above about 56%. This is one part of the list.

For the assay, the system named is Wild type. The assay can be described thus: S. aureus survival, RN4220 and DeltatarO strains – OD600, teichoic acid synthesis inhibitors, primary screen (AID 463173). The following applies: S. aureus RN4220 wild type/DeltatarO growth, OD600, 18 h, stronger effect = lower value, screened at 18.75 µg/mL (by protocol).
Take `COc1ccc2nc(Cl)c(CN(C(=O)c3ccco3)C3CCCC3)cc2c1`: the survival was inactive: 111%.

For the compound `C=CCN1CCN(C(c2ccccc2Cl)c2nnnn2C2CCCCC2)CC1` (centres undefined), the survival is inactive: 100%.

As to `Cc1cccc(OCC(=O)Nc2cc(-c3ccccc3F)nn2-c2ccccc2)c1`, the survival is inactive: 82%.

With `Cc1cc(Cl)ccc1NC(=O)Cn1nnc2sc(-c3ccccc3)cc2c1=O`, the survival is inactive: 113%.

For the compound `COc1ccc(OC)c2sc(N3CCN(C(=O)CCS(=O)(=O)c4ccc(F)cc4)CC3)nc12`, the survival was inactive: 78%.

As for `O=C(NCC1CCCO1)Nc1c[nH]c2c(Cl)cccc2c1=O` (centres undefined), the survival was inactive: 111%.

With `Nc1ccc2c(c1)OC1(CCCCC1)O2`, the survival is inactive: 109%.

As for `CC(C)c1ccc(Nc2ncnc3onc(-c4ccc(F)cc4)c23)cc1`, the survival was inactive: 89%.

For the compound `COc1cc(NC(=O)N2CCC(CN3CCOCC3)CC2)cc(OC)c1OC`, the survival is inactive: 81%.

With `COC(=O)c1ccc2c(c1)N(Cc1ccc(Cl)cc1)C(=O)c1ccccc1S2`, the survival is inactive: 77%.

For the compound `Cc1nc2nc(SCC(=O)NC3CCCCC3)nn2c(C)c1Cc1ccccc1Cl`, the survival was inactive: 57%.

Turning to `CCCCn1c(SCC(=O)N2CCCC2)nc2ccccc2c1=O`, the survival is inactive: 100%.

Turning to `CCCCn1nc(NC(=O)c2cccc(Cl)c2)c2cc3cccc(C)c3nc21`, the survival is inactive: 88%.

As for `COc1cccc(N2CCN(C(=O)c3cc4c(=O)oc5ccc(C)cc5c4s3)CC2)c1`, the survival is inactive: 87%.

Take `CCS(=O)(=O)N1CCN(Cc2ccccc2)CC1`: the survival is inactive: 119%.

Turning to `CCCn1c2ccccc2c2cnn(CC(=O)N3CCCC(C)C3)c(=O)c21` (centres undefined), the survival was inactive: 75%.

For `Cc1ccc(CNC(=O)C2CCN(S(=O)(=O)c3cn(C)cn3)CC2)cc1`, the survival is inactive: 82%.

In the case of `O=C(NCCCc1nc2ccccc2n1Cc1ccc(Cl)cc1)C1CCCCC1`, the survival is inactive: 92%.

In the case of `CC(C)c1ccc(N(CC(N)=O)S(C)(=O)=O)cc1`, the survival was inactive: 101%.

Turning to `CCc1ccccc1-n1c(C)nc2cc(C(=O)NCCc3ccc(Cl)cc3)ccc21`, the survival is inactive: 65%.

Regarding `CCS/C=C/C#CC1(O)CCCCC1`, the survival was inactive: 116%.

For the compound `Cc1ccc(-n2ncc(C(=O)NCCN3CCCC3)c2C2CCN(C(=O)OC(C)(C)C)CC2)cc1C`, the survival is inactive: 71%.

`CC(C)N(Cc1ccccc1)S(=O)(=O)c1ccc(-c2cc(C(F)(F)F)on2)s1`: the survival is inactive: 80%.

Take `COCCCNC(=O)CCc1c(C)nc2nc(-c3cc(OC)cc(OC)c3)nn2c1C`: the survival was inactive: 72%.

As for `COc1ccc2[nH]c(=O)c(CN(Cc3ccco3)C(=S)NCc3ccco3)cc2c1`, the survival was inactive: 117%.

Turning to `CC(C)OCCCNC(=O)CN1C(=O)COc2ccc(S(=O)(=O)N3CCCCCC3)cc21`, the survival is inactive: 98%.

Consider `CCCC(c1nnnn1CS(=O)(=O)c1ccc(C)cc1)N1CCC(C(N)=O)CC1` (centres undefined), for which the survival is inactive: 102%.

Regarding `COc1ccc(-n2c(C)c(C(C)=O)c3cc(OC(=O)COc4ccccc4)ccc32)cc1`, the survival was inactive: 73%.

`Cc1cccc(-c2cc3nc(C)c(C)c(N4CCC5(CC4)OCCO5)n3n2)c1`: the survival is inactive: 100%.

Take `CCC(Oc1ccccc1)C(=O)Nc1cc(-c2cccc(C)c2)nn1-c1ccccc1` (centres undefined): the survival is inactive: 89%.

`CCOCCCNC(=O)c1cnc2sc(N3CCCCC3)nn2c1=O`: the survival was inactive: 71%.

Take `CCCCCn1c(CCNC(=O)c2ccc(F)cc2)nc2ccccc21`: the survival is inactive: 89%.

On to `Cc1cc(-c2ccc(C)c(S(=O)(=O)NCc3cccc(Br)c3)c2)on1`, for which the survival is inactive: 99%.

Turning to `CCCS(=O)(=O)N1CC(=O)N(c2cccc(Cl)c2C)C(C)(C(=O)NC2CCCC2)C1` (centres undefined), the survival was inactive: 71%.

Regarding `Cc1cc(C)cc(OCC(=O)N(Cc2cccs2)c2ccc(Cl)cc2)c1`, the survival was inactive: 81%.

Turning to `N#Cc1cn(CC(=O)N2CCCC2)c2ccccc12`, the survival was inactive: 112%.

As to `Cc1c(N)c(C)c(N)c(C)c1N`, the survival was inactive: 105%.

`Cc1ccc2onc(CC(=O)N3CCN(c4cc(Cl)ccc4C)CC3)c2c1`: the survival is inactive: 109%.

Take `Fc1ccc(-c2nn(-c3ccccc3Cl)c3c2cnc2ccccc23)cc1`: the survival was inactive: 113%.

For `Cc1ccc(CNC(=O)Cc2c(C)c3c(cc(C)c4c(C)coc43)oc2=O)cc1`, the survival was inactive: 111%.

In the case of `COc1cccc(CNC(=O)Cn2ncn3nc(-c4cccs4)cc3c2=O)c1OC`, the survival is inactive: 95%.

In the case of `C#CCn1cc(/C=C(/C#N)C(=O)Nc2ccccc2)c2ccccc21`, the survival is inactive: 102%.

With `COc1ccc(-n2nc(C(=O)N3CCN(c4cccc(C)c4C)CC3)c3c4ccccc4n(C)c3c2=O)cc1Cl`, the survival is inactive: 81%.

For the compound `COc1ccc(CNC(=O)c2nc(SCc3ccccc3F)ncc2Cl)cc1`, the survival was inactive: 90%.

In the case of `O=C(c1ccc2c(c1)N(Cc1ccc(F)cc1)C(=O)c1ccccc1S2(=O)=O)N1CCCC1`, the survival was inactive: 91%.

`CCC(=O)N1CCCc2cc(S(=O)(=O)N3CCC(C(=O)NC4CCCCC4)CC3)ccc21`: the survival is inactive: 136%.

Turning to `COc1ccccc1Cn1c(CNS(=O)(=O)c2ccc(C(C)C)cc2)nc2cccnc21`, the survival is inactive: 75%.

Regarding `CC(NC(=O)c1ccc2c(c1)CCN2S(=O)(=O)c1ccccc1)c1ccccc1` (centres undefined), the survival is inactive: 84%.

`Fc1ccccc1Cc1cn2cc(-c3ccc(Cl)cc3)nc2s1`: the survival was inactive: 77%.

Turning to `Cc1cccc(OC2CCS(=O)(=O)C2)c1` (centres undefined), the survival is inactive: 107%.

For the compound `COc1ccccc1NC(=O)c1oc2ccccc2c1NC(=O)c1cccc(OC)c1OC`, the survival was inactive: 44%.

In the case of `CC(C)Nc1nc(Cl)nc(NNC(=O)C(C)Oc2ccccc2)n1` (centres undefined), the survival is inactive: 103%.

As for `CCOC(=O)C1CCC(CN(Cc2ccccc2)S(=O)(=O)c2ccc(Br)cc2)CC1` (centres undefined), the survival is inactive: 77%.

Turning to `Cc1ccccc1Nc1c(-c2cc(Br)ccc2F)nc2ccccn12`, the survival was inactive: 136%.

On to `CCOc1ccc(-c2cc(C(=O)Oc3ccc(C#N)cc3)no2)cc1`, for which the survival was inactive: 77%.

Regarding `COc1ccc(/C=C/c2nc(C#N)c(NCc3ccc(F)cc3)o2)cc1OC`, the survival is inactive: 103%.

On to `Cc1cccc(/C=C(\C#N)c2nc3ccccc3c(=O)[nH]2)c1`, for which the survival was inactive: 85%.

With `COc1cc(NC(=O)CCS(=O)(=O)c2ccc3c(c2)CC(=O)N3C)cc(OC)c1OC`, the survival was inactive: 89%.

On to `O=C(CCS(=O)(=O)c1ccccc1)N(Cc1cccnc1)c1nc2ccc(Cl)cc2s1`, for which the survival is inactive: 73%.

These data come from PubChem BioAssay AID463173 (ICCB-Longwood Screening Facility, Harvard Medical School, 2010).
